Sequences with one replicate were seen in a single cluster, so their values are uncertain.
Each sequence was assayed on ATP (assay: switch fluorescence ratio, 500 uM ATP over buffer (Cy3 cluster intensity, sum of 5 cycles each) (fold (ratio)); higher = stronger signal-on switching upon ATP binding; sequences stand for … in TCGTCGGCAGCGTCAGATGTGTATAAGAGACAGTTTTTTTTTTTTTTTTTTTTTTTTT…TC). Settings: aptamer strand: ATP DNA aptamer (quencher-CACCTGGGGGAGTATTGCGGAGGAAGG + anchor), 100 nM annealed; ATP concentration: 500 uM; one replicate.
How it was run: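 Switching-strand clusters labelled with Cy3 on a modified Illumina MiSeq flow-cell were annealed to 100 nM quencher-labelled ATP aptamer, imaged in selection buffer, and re-imaged after 15 min with 500 uM ATP at 22 °C. This was done over five cycles with NaOH stripping and re-annealing in between. The fluorescence ratio is summed target-cycle over summed buffer-cycle Cy3 intensity per cluster, averaged per switch-domain sequence, excluding clusters outside 100-1000 RFU.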
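Note: ATP exposure 15 min at 22 °C before imaging.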

Sequence	switch fluorescence ratio
TAAGAAGTCA	1.03
GCTAATGGTG	1.04
TTGTTCCGTC	1.05
CCCAGAAATA	1.19
GAAGGGTGTC	1.03
TATGGTTGGA	0.983
ACTACGAGAG	1.02
ACGTACTCCT	1.41
AGACCAGTCT	1.03
TTCGTTCAAG	1.01
AGGATAAGGG	1.01
GATCCTCCTC	1.48
TTTGTATCCC	1.16
TCCCAGAAGG	1.01
GTCTAGAGCC	0.994
TTAGTTGTTC	0.968
ACAAGTCGGC	1.02
CGTTGATAAT	0.99
GGGTCATATA	0.973
ATACTAGATA	1
AACAAGGCGG	0.988
TTCGGACGTC	0.951
AGGAAGCAAC	1.52
CACTTCCGAT	1.78
GATTAACTTT	1.04
GCCGAAACTT	1.03

Sequence	switch fluorescence ratio
GCTGGCTAGT	1
GATAATTCTC	0.982
ACAGTTGGAG	0.97
CTACGTCGTT	1.02
ATAGCACTGG	1.12
ACCGCCACCC	1.42
AGGTGGCAGT	0.992
ATGGGGCAGT	0.996
GATTATGGCT	0.988
CGGAAGACC	1.16
AAGTTGCGTA	1.03
CCGGTTTCTG	1.04
AGATTGCCCG	0.922
AAGATTCTGG	0.995
ATGGTTGATA	1.02
ATGGAGGATG	0.995
GGGTCTTAGG	0.926
GATTTGAGAT	1.02
GAAAGACCAG	1.02
AGATAATGCC	1.03
GACTCGCTCA	1.01
TCAGGTGGT	1.1
AGGCATAAGC	0.964
AAATAAGCCT	1.01
GACGGGTGTT	0.989
TTATTTTCCG	0.97

Sequence	switch fluorescence ratio
CACGTACGGA	1.72
GATGAAAAAC	1.52
ACCACCCCTT	1.06
AATGTTCCAC	0.962
TCAGCGTTCA	1
TGTCGACG	0.97
GGACAGAGCA	1.03
TGGCCGAATG	0.95
CCCCCACGGA	1.61
GCGGGGCCGA	1.02
AGCGGCGCGT	1.04
TGGCTCTTTA	0.96
GGGAACTCGC	1.17
CATTACTGTG	1.01
GACCTTAGCA	1.15
GTGGTTGTGA	0.986
AACTAGGGC	1.04
ACAAGAATAT	0.982
ATGCGCTTA	1.02
ATCGTGTCGA	0.999
TGGGATTCAA	0.992
CATTTCCACG	1.04
AAGACCTCCG	1.18
CGATGTTGGA	0.988
GCTCCTCAA	3.85
TATGAATGA	1.08

Sequence	switch fluorescence ratio
GACTTAGTTT	1.02
CTTTACCCCT	2.07
ACCCGCTCCT	1.34
TCCTAGAGGT	1.02
GTGTGTAACG	0.97
ACAAAGAAGT	0.936
GCGGATTGTC	1.02
CATGAGCTTG	0.981
TAAGAGCCTA	1.01
AAATGGGGTA	0.997
CCTGGTTCGA	0.964
AGTTGATTGC	1.03
GCACGGTTTC	1.01
CAAGTTAGAC	1.06
GCTCCTTGCA	1.05
ATTGCCTCGT	0.966
ACGACGCCG	1.07
GCTGCAGGAC	2.79
TTTTCATATG	1.02
CTCAAGTAAT	1.55
ATGAGGCTAG	0.97
AAAGGGAAGA	1.03
GTAGTACCAG	0.99
TATCTTGTCT	0.999
TAATCTGAAT	0.93
GGTCACCTAT	0.962

Sequence	switch fluorescence ratio
CAGGTCCTAA	1.04
GTAGGGAACT	0.978
ATCATGGAGC	0.963
TGACAAACCC	1.12
GCTTGCATTA	1.07
ACGGATATGA	1.01
GGTGAGAGGC	1.05
TGCCTGGCCC	1.02
GCAGGTGCCA	1.26
TTATGATAAC	1.04
CGTATGACGT	1.03
CCCCGCGGAT	3.84
TGCGTCGCCC	0.997
GCCGGAAGAC	4.29
TATTGAATGT	0.966
GCGTTCGCG	1.01
TTAAAGTAA	1.02
ACCGGGGCCC	1.07
GGGCATTTAA	0.978
ACATGGTGTA	1.02
GGGCATGGCA	1.01
TGGGGGATA	1.03
CAAAGCTAAG	1.01
CCAGGGAATA	1.02
CCGTACGGTG	1.05
GGTCCAAGCG	0.992

Sequence	switch fluorescence ratio
ATTTAGAGGC	1.02
CTGGTCTAAA	1.01
GAGTAAGCTT	0.986
CCAGAATAGA	0.99
TACAGCT	1.04
GTAGAGCCAG	0.983
CGTGGTAGAT	1.07
GCGACTTAGT	0.975
GTTCCGGCGC	0.992
GACACTGGAT	0.976
AAACATCCCA	1.03
TTAACGCTCC	1.07
TATTGGTGC	1.06
AAGTCACAAA	1.08
GGCGTAATGG	1.19
AACATAAGTT	1.06
GCTTGGTCTG	1.01
AGAGAAGATT	1
ACCCACCGTC	1.38
GGGAAAGTCT	1.06
ACCCTCTTGA	1.03
CGGGTTGCTT	1.04
CGCCACAGTA	1.03
